Test results taken from paper PMC6919601, “Identification of Plasmodium dipeptidyl aminopeptidase allosteric inhibitors by high throughput screening” (PLoS ONE, 2019).
In all, about 110,000 compounds went through this assay and about 230 (0.21%) showed an effect of 50% or more. The list shows a part of the results.

Target: DPAP1 (Plasmodium falciparum, UniProt Q8IIJ9)
Assay: primary screen, percent inhibition; read by cleavage of a fluorogenic dipeptide substrate; higher = more effect of the substance
Design: species or system P. falciparum D10 trophozoite lysates; single well
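Note: 30 min substrate incubation versus DMSO and 10 µM JCP410 controls.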

Sequence of DPAP1 (Q8IIJ9 whole entry, looked up): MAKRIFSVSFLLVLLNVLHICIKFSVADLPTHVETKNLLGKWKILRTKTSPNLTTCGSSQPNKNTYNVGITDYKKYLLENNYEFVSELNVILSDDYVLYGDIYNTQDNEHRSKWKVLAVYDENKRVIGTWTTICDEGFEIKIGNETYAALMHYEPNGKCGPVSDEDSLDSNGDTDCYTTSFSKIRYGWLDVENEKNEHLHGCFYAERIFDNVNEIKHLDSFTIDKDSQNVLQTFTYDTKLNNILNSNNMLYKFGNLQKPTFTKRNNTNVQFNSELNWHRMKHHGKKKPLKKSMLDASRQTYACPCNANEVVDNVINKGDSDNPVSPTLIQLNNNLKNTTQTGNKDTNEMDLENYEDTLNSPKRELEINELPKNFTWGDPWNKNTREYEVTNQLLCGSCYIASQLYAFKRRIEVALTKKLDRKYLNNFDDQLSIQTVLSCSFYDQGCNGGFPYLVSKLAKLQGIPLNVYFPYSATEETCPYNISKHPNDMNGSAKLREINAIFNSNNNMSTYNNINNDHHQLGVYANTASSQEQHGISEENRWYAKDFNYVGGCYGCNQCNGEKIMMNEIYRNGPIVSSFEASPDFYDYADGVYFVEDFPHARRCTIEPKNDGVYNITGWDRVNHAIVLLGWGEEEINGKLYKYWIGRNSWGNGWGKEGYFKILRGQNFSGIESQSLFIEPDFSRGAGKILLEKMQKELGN

Compound | % Inhibition @ 10 uM [%]
CC(C)c1ccc(C(=O)NC(C)c2ccc3c(c2)OCO3)cc1 (stereo not drawn) | -1.36
FC(F)(F)c1ccccc1C1NCCc2c1[nH]c1ccccc21 (stereo not drawn) | -3.62
COCCCNC(=O)/C(C#N)=C/c1cn(CC(=O)N2CCOCC2)c2ccccc12 | -2.5
N#CC1CCN(C(=O)Cn2ncc3c2-c2ccccc2OC3)CC1 | -2.16
Cc1cccc(OCC(O)Cn2c(N3CCNCC3)nc3c2c(=O)n(C)c(=O)n3C)c1 (stereo not drawn) | 0.627
O=c1[nH]c(=O)n(Cc2ccc(Oc3ccccc3)cc2)cc1Br | 1.11
O=C(NCCn1cccc1)c1cc(F)c(F)cc1Cl | -6.42
COc1ccc(/C(O)=C/C=N/c2ccc(Br)cc2)cc1OC | -0.413
Oc1c(/C=N/Cc2ccncc2)sc2ccccc12 | -0.467
Cc1onc(-c2c(F)cccc2Cl)c1C(=O)Nc1ccccc1 | -3.23
CCn1c2ccccc2n2c(C(=O)OC)c(C)nc12 | 4.52
O=S(=O)(c1ccc(-c2cc(C(F)(F)F)no2)s1)N1CCN(c2ccccn2)CC1 | 2.07
CCOc1ccc(C2C3=C(O)CC(C)(C)CC3=Nc3nc(N)nc(O)c32)cc1 (stereo not drawn) | -2.91
CCOC(=O)/C(C#N)=C\c1c(C)cc(C)c(COC)c1C | -6.25
COc1ccc(C2C(C(=O)c3ccccc3)=C(O)C(=O)N2CCCN2CCOCC2)cc1OC (stereo not drawn) | -3.06
CC1CN(C(=O)Nc2ccccc2)c2ccccc2-[n+]2ccsc21 (stereo not drawn) | 2.27
COCC(C)NCc1ccc2c(c1)OCO2 (stereo not drawn) | 3.44
Cc1ccc(CNC(=O)Cn2c(=O)n(Cc3ccccc3)c(=O)c3c4c(sc32)CCCC4)cc1 | -0.58
Cc1ccccc1S(=O)Cc1ccc(C(=O)NCc2cccc(Cl)c2)o1 (stereo not drawn) | -3.02
O=C(Nc1ccccc1C(=O)NCC1CCCO1)c1ccc(Cl)cc1Cl (stereo not drawn) | -1.26
OC1=C2C(=Nc3ccccc3NC2c2ccncc2)CC(c2ccccc2)C1 (stereo not drawn) | -4.76

Compound | % Inhibition @ 10 uM [%]
COc1cc(C2=NOC(C(=O)NCc3ccc(F)cc3)C2)cc(OC)c1OC (stereo not drawn) | -2.16
CCOC(=O)C1=C(CN2CCN(c3ncccn3)CC2)NC(=O)NC1c1ccc(OC(C)C)cc1 (stereo not drawn) | -4.69
CC(C)Oc1ccc(/C=N/N=C/c2ccc(OC(C)C)cc2)cc1 | 1.39
O=C(c1ccc(Br)o1)N1CCN(C(=O)c2ccc(Br)o2)CC1 | 0.986
CS(=O)(=O)N(CC(=O)NC1CCCC1)c1cccc(Br)c1 | 0.235
Cc1ccccc1OCC(=O)Nc1ccc(C(=O)O)cc1 | 4.44
S=C(NCCSCc1ccc(Cl)cc1)Nc1ccccc1 | -3.44
N#CC1=C(N)OC2=C(C(=O)CC(c3ccccc3)C2)C1c1cccc(O)c1 (stereo not drawn) | 3.03
O=C(O)c1cc(SCCS(=O)(=O)c2ccc(Cl)cc2)ccc1Cl | -3.66
COCCNC(=O)c1cnn2c(-c3ccccc3)cc(-c3ccccc3)nc12 | -1.42
COc1cccc(-c2ccc3c(N)c(C(=O)Nc4ccccc4F)sc3n2)c1 | -0.425
C/C(=N\Cc1ccncc1)C1=C(O)c2ccccc2C1=O | 4.55
CC(C)NC(=O)c1ccc(CN2CC(=O)N3CCCCC3C2=O)cc1 (stereo not drawn) | -2.77
COc1ccc(NC(=O)c2cccc(Br)c2)c(OC)c1 | 0.823
CCC/N=c1\c(NS(=O)(=O)c2ccc3c(c2)CCCC3)c(O)oc2ccccc12 | 4.29
COc1ccc(C2CC(c3ccc(Br)cc3)=NN2C(=O)CCC(=O)O)cc1 (stereo not drawn) | -4.5
CCN(CC)S(=O)(=O)c1cc(S(=O)(=O)N(CC)CC)c(C)cc1C | 5.56
COc1ccc(NC(=O)c2cccc(F)c2)cc1OC | -0.636
COc1ccccc1/C=C/C1NC(=O)NC(C)=C1C(=O)OC(C)C (stereo not drawn) | 1.63
CCOCCCNC(=O)c1ccc2c(c1)c(C)c(C)n2Cc1ccc(Cl)cc1 | 0.224
COc1ccccc1CCNC(=O)[C@H]1O[C@@H]2OC(C)(C)O[C@@H]2[C@H]2OC(C)(C)O[C@H]21 | 1.64

Compound | % Inhibition @ 10 uM [%]
O=C(CSc1nnnn1-c1ccccc1)c1ccc2c(c1)Cc1ccccc1-2 | -6.84
Cc1cc2c(cc1Br)NC(=O)C21C(C#N)=C(N)Oc2cc(N)ccc21 (stereo not drawn) | 4.33
COC(=O)c1coc(=O)c2ccccc12 | -4.74
Cc1ccc(S(=O)(=O)NCc2ccc(C(=O)O)cc2)cc1 | -5.64
O=C(c1ccccc1)N1C(O)CCC12CSCC2=O (stereo not drawn) | -6.7
CC1CCCCN1S(=O)(=O)c1ccc(NC(=O)c2ccc(Cl)cc2Cl)cc1 (stereo not drawn) | 0.231
COc1ccc(-n2ncc3c(N(CCO)CCO)ncnc32)cc1 | 2.88
CCOc1cccc2c1Oc1nc(-c3ccc(C(=O)OC)cc3)nc(O)c1C2 | -1.06
Cc1cc(-c2ccc(C)c(S(=O)(=O)NCCSCc3ccco3)c2)on1 | -2.86
O=C(NCc1nc(-c2ccccc2)no1)c1ccc(-c2ccccc2)cc1 | -5.06
O=c1c(C(c2cncs2)c2c(O)oc3ccccc3c2=O)c(O)oc2ccccc12 | 3.87
CCOc1ccc(-c2cc(C(=O)N(C)Cc3ccco3)[nH]n2)cc1 | 5.43
CC(C)(C)c1coc2cc3oc(=O)ccc3cc12 | -4.75
CC(=O)Nc1cccc(/N=C/c2c(C)nn(-c3ccc(Br)c(C)c3)c2O)c1 | -4.68
COc1ccc(CN2CCN(CCCc3ccccc3)CC2)c(OC)c1OC | -5.26
CC(C)n1cc(/C=C2/SC(=O)NC2=O)c2ccccc21 | -4.16
O=C(O)CCc1nc(O)c2c3c(sc2n1)CCCC3 | -8.12
COc1cnn(-c2ccccc2)c(=O)c1N(C)C | -1.22
CC1CN(C(=O)c2ccc(COc3ccccc3Br)cc2)CC(C)O1 (stereo not drawn) | -6.94
Oc1nc(SC(c2ccccc2)c2ccccc2)nc(O)c1C(c1ccccc1)c1ccccc1 | 1.9
Cc1ccccc1C(=O)N1CCC2(CC1)N=C(c1ccc(F)cc1)C(=O)N2 | -1.46
